Results: the RNAGym collection of RNA variant scans (doi:10.7554/elife.90254)
The source gives no read counts; variants with many changes may rest on few reads.

B1: LINE1-full (parent)
chain: UACGUAGGUGGUUUUCCCCUGAUAGUGCUAAGGGGGCCUGGAAGUUUGGACUGGGCAGAGCUCAACACAGCGUGGCAAAGUGGCUGUGGCUAGACUGCCUCUCUGGAUUCCUCGUCACUCAGCAGGGCAUCUCUGAGAGAAAUGCC

Variants of: B1
Experiment: self-cleavage, relative activity (ratio to wild type); higher = more cleavage; in vitro, sequencing; the parent is a self-cleaving ribozyme

Variant	self-cleavage
UUCGUAGGUGGUUUUCCCCUGAUAGUGCUAAGGGGGCCUGGAAGUUUGGACUGGGCAGAGCUCAACACAGCGUGGCAAAGUGGCUGUGGCUAGACUGCCUCUCUGGAUUCCCCGUCACUCAGCAGGGCAUCCCUGAGAGAAAUGCC [A2U U112C U132C]	0.92
UACGUAGGUGGUUUUCCCCAGAUAGUGCUAUGGGGGCCUGGAAGUUUGGACUGGGCAGAGCUCAACACGGCGUGGCAAGGUGGCUGUGGCUAGACUGCCACUCUGGAUUCCUCGUCACUCAGCAGGGCAUCUCUGAGAGAAAUGCC [U20A A31U A69G A79G U100A]	0
UACGUAGGUGGUUUUCCCCUGAUAGUGCUAAGGGGGCCUGGAAGUUUGGACUGGGCAGAGCUCAACACAUCGUGGCACAGUGGCUGUGGCUAGACUGCCUCUCUGGGUUCCUCGUCACUCAGCAGGGCAUCUCUGAGAGAAAUGCC [G70U A78C A107G]	0.13
UACGUAGGUGGUUUUCCCCUGAUAGUGCUAAGGGGGCCUGGAAGUUUGGACUGCGCAGAGCUCAACACAGCGUGGCAAAGUGGCUGUGGCCAGACUGCCUCUCUGGAUUCCUCGUCACUCAGCAGGGCACCUCUGAGAGAAAUGCC [G54C U91C U130C]	0.6
UACGUAGGAGGGUUUCCCCUGAUAGUGCUAAGGGGGCCUGGAGGUUUGGACUGGGCAGAGCUCAACACAGCGUGGCAAAGUGGCUGUGGCUAGACUGCCUCUCUGGAUUCCUCGCCACUCAGCAGGGCAUCUCUGAGAGAAAUGCC [U9A U12G A43G U115C]	0
UACGUAGGUGGUUCUCCCCUGAUAGUGCUAAGGGGGCCUGGAAGCUUGGACUGGGCAGAGCUCGACACAGCGUGGCAAAGUGGCUGUGGCUAGACUGCCUCUCUGGAUUCCUCGUCACUCAGCAGGGCAUCUCUGAGAGGAAUGCC [U14C U45C A64G A140G]	0.34
UACGUAGGUGGUUUUCCCCUGAUAGUGCUAAGGGGGCCUGGAAGUUUGGACUGGGCAGAGCUCAACACAGCGUGGCAAAGUGGCUGUGGCUUGACCGCCCCUCUGGAUUCCUCGUCACUCAGCAGGGCAUCUCUGAGAGGAAUGCC [A92U U96C U100C A140G]	0.42
UACGUAGGUGGUUUUCCCCUGAUAGUGCUAAGGGGGCCUGGAAGUUUGGACUGGGCAGAGCUCAACACAGCGUGGCGGAAUGGCUGUGGCUAGACUGCCUCUCUGGAUUCCUCGUCACUCAGCAGGGCAUCUCUGAGGGAAAAGCC [A77G A78G G80A A138G U143A]	2.04
UACGUAGGUGGUUUUCCCCUGAUAGUGCUUAGGGGGCCUGGAAGUUUGGACUGGGCAGUGCUCAACACAGCGUGGCAAAGUGGCUGUGGCUAGACUGCCUCUCUGGAUUCCUCGUCACUCAGCAGGGCAUCUCUGAGAGAGAUGCC [A30U A59U A141G]	1
UACGUAGGUGGUUUUCCCCUGAUAGUGCUAAGGGGGCCCGGAAGUUUGGACUGGGCAGAGCUCAACACAGCGUGGCAAAGAGGCGGUGGCUAGACUGCCCCUCUGGAUUCCCCGUCACUCAGCAGGGCAUCUCUGAGAGAAAUGCC [U39C U81A U85G U100C U112C]	0
UACGUAGGUGGUUUUCCCCUGAUAGUGCUAAGGGGGCCUGGAAGCUUGGACAGGGCAGAGCACAACACAGCGUGGCAAAGUGGCUGUGGCUAGACUGCCUCUCUGGAUUCCUCGACACUCAGCAGGGCAUCUCUGAGAGAAAUGCC [U45C U52A U62A U115A]	0
UACGUAGGUGGUCUUCCCCUAAUAGUGCUAAGGGUGCCUGGAAGUUUGGACUGGGCAGAGCUCAACACAGCGUGGCAAAGUGGCUGUGGCUAGACUGCCUCUCUGGAUUCCUCGUCACUCGGCAGGGCGUCUCUGAGAGAAAUGCC [U13C G21A G35U A121G A129G]	0.71
UACGUAGGUGGUUUUCCCCUGAUAGUGCUAAGGGGGCCUGGUAGCUUGGACUGGGCAGAGCUCAACACAGCGUGGCAAAAUGGCUGUGGCUAGACUGCCUCUCUGGAUUCCUCGUCACUCAGCAGGGCAUCUCUGAGAGAAAUGCC [A42U U45C G80A]	1.95
UACGUGGGUGGUUUUCCCCUGAUAGUGCUAAGGGGGCCUGGAAGUUCGGACUGGGCAGAGCUCAACACAGCGUGGCAAAGUGGCUGUGGCUAGACUGCCUCUCAGGAUUCCUCGUCACUCAGCAGGGCAUCUCUGAGAGAAAUGCC [A6G U47C U104A]	0.32
UACGUAGGUGGUUUUCCCCUGAUAGUGCUAAGGGGGCCCGGAAGUUUGGACUGGGCAGAGCUCAACACGGCGUGGCAAAGUGGCUGUGGCUAGACAGCCUCUCUGGAUUCCUCUUCACUCAGCAGGGCAUCUCUGAGAGAAAUGCC [U39C A69G U96A G114U]	0
UACGUAGGCGGUUUUCCCCUGAUGGAGCUAAGGGGGCCUGGAAGUUUGGACUGGGCAGAGCUCAUCACAGCGUGGCAAAGUGGCUGUGGCUAGACUGCCUCUCUGGAUUCCUCGUCACUCGGCAGGGCAUCUCUGAGAGAAAUGCC [U9C A24G U26A A65U A121G]	0.54
UACGUAGGUGGUUCCCCCCUGAUAGUGCUAAGGGGGCCUGGAAGUUAGGACUGGGCAGAGCUCAACACAGCGUGGCAAAGUGGCUGUGGCUAGACUGCCUCUCUGGAUUCCUCGUCACUCAGCAGGGCAUCUCUGAGAGAAAUGCC [U14C U15C U47A]	2.47
UACGUAGGUGGUUUUCCCCUGAUAGUGCUAUGGGGGGCUGGAAGUUUGGACCGGGCAGGGCUCAACACAGCGUGGCAAAGUGGCUGUGGCUAGACUGCCUCUCUGGAUUCCUCGUCGCUCAGCAGGGCAUCUCUGAGAGACAUGCC [A31U C37G U52C A59G A117G A141C]	0
UACGUAGGUGGUCUACCCCUGAUAGUGCUAUGGGGGCCAGGAAGUUUGGACUGGGCAGAGCUCAACACGGCGUGGCAAAGUGGCUGUGGCUAGACUGCCUCUCUGGAUUCCUCGUCACUCAGCAGGGCAUCUCUGAGAGAAAUGCC [U13C U15A A31U U39A A69G]	0.77
UACGUAGGUGGUUUUCCCCUGAUAGUGCUAAGGGGGCCUGGAAGUUUGGACUGGGCAGAGCUCAACACAGCGUGGCAAAGUGGCUGUGGCUAGACUGCCUUUCUGGGUUCCUCGUCACUCAGCGGGGCAUCUCUGAGAGAAAUGCC [C101U A107G A124G]	1.62
